# Source: PubChem BioAssay AID686970 (National Center for Advancing Translational Sciences (NCATS), 2013)
# In all, about 360,000 compounds went through this assay and about 6,000 (1.7%) were called active. Inconclusive results, whose numbers are uncertain, are shown with a selection of clear calls. Calls follow the shape of the dose curve; as a rule, active = well fitted cell-killing curve with a large enough effect; inconclusive = small, poorly fitted or top-dose-only effect, or effect the other way; inactive = flat fitted curve, though single readings scatter. Potencies of inconclusive entries are left out as doubtful fits.
# Experiment: qHTS for induction of synthetic lethality in tumor cells producing 2HG: qHTS for the HT-1080-NT fibrosarcoma cell line;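 also: NT is the 2HG producing partner of a matched IDH1 knockdown line; nearly all actives have a fitted effect of over 55% in size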;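 as to activity, negative = less viability: 0% = DMSO-treated cells and -100% = media-only wells without cells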
# Settings: HT-1080-NT fibrosarcoma viability, CellTiter-Glo ATP luminescence, 48 h; activity, negative = less viability: at 46.1 µM (top of the series) unless noted
# Summary of the method: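 Read-out is CellTiter-Glo luminescence after 10 minutes at room temperature, following 48 hours' compound treatment of HT-1080-NT cells (750 cells/well, RPMI, 5% FBS, 37 degrees C).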
# Potency is read from the fitted curve at half-maximal effect; tags tell the direction and shape of the fitted curve.
Structure (SMILES),Potency,"activity, negative = less viability"
COc1ccccc1CNC(=O)CCNS(=O)(=O)/C=C/c1ccc(C)cc1,inactive,
S=C(NCc1ccc2c(c1)OCO2)Nc1ccc(-c2nc3ccccc3[nH]2)cc1,"inconclusive [cytotoxic, single point]",
COc1ccc(-c2cc(C(F)(F)F)nc(S(C)(=O)=O)n2)cc1OC,"inconclusive [cytotoxic, single point]",
COc1ccc(NC(=O)COC(=O)c2cc(SC)ccc2Cl)c(OC)c1,"inconclusive [cytotoxic, single point]",
COc1ccccc1C1CC(c2ccc(F)cc2)Nc2ncnn21 (centres undefined),inactive,
CN(C)CCn1c2c(c(SCC(=O)Nc3cccc4ccccc34)nc1=O)CCC2,inactive,
Cc1c(O)ccc(-c2n[nH]c(C(=O)O)c2-c2nc3ccccc3s2)c1O,inactive,
COC(=O)c1cccc(NC(=O)CCc2cc(OC)c(OC)c(OC)c2)c1,inactive,
CCN(CC)c1ccc(C(=O)Nc2cccc(F)c2)cc1,"inconclusive [cytotoxic, partial curve]",
CNNC(=S)NCCC1=CCCCC1,inactive,
CCOc1cc(/C=C2/SC(=S)NC2=O)ccc1OC(=O)c1ccco1,active: 11.6 µM,
CC1(C(=O)NC2CCCCCC2)CCN1C(=O)Cc1ccc(-c2ccccc2)cc1 (centres undefined),"inconclusive [cytotoxic, single point]",
COc1c(C)cc(Br)cc1C(=O)Nc1cccc(NC(=O)c2ccco2)c1,inactive,
NC(Cc1ccc(F)cc1)c1csc(Nc2nncc3ccccc23)n1 (centres undefined),active: 23.1 µM,
CCc1ccccc1NC(=O)CN(C)C(=O)CSc1nc2cc(Cl)ccc2s1,inactive,
CCN(CC)S(=O)(=O)c1ccc(Nc2ccc(-c3ccc4c(c3)OCCO4)nn2)cc1,"inconclusive [cytotoxic, single point]",
CCn1c(=S)sc2c(=O)n(CC(=O)Nc3cccc(Cl)c3)c(C)nc21,"inconclusive [cytotoxic, single point]",
CC(C)C[C@H]1CNC(=S)N1C[C@H]1CCCN1C[C@H](Cc1ccc(O)cc1)N1C[C@H](Cc2ccc(O)cc2)N(CCc2ccccc2)C1=S,active: 20.6 µM,
CCCNC(=S)N1CCC(NC(=O)C2CCCCC2)CC1,inactive,
COCCN(C(=O)CNC(=O)c1ccco1)C(C(=O)NC1CCCC1)c1ccccc1F (centres undefined),inactive,
N/C(=N\c1nc2ccccc2o1)NC(=O)c1ccccc1NC(=O)c1ccccc1,"inconclusive [cytotoxic, single point]",
CC(C)(C)OC(=O)N[C@@H](Cc1ccccc1)c1nnc(S(=O)(=O)Cc2cccc(F)c2)o1,"inconclusive [cytotoxic, single point]",
O=S(=O)(Nc1ccccc1N1CCCCC1)c1ccccc1,inactive,
CCN(CC)CC(=O)Nc1sc(C)cc1C(=O)c1ccc(C)cc1,"inconclusive [rising, single point]",
OCCN1CCN(CC/C=C2/c3ccccc3Sc3ccc(Cl)cc32)CC1,"inconclusive [cytotoxic, single point]",

Structure (SMILES),Potency,"activity, negative = less viability"
CCCNC(=O)C1(C)CCCN(CCC(=O)c2ccccc2)C1 (centres undefined),"inconclusive [cytotoxic, single point]",
Oc1ccc(Br)cc1-c1cc(-c2ccccc2Cl)[nH]n1,"inconclusive [cytotoxic, single point]",
O=c1c2cc(NC(=S)NCCN3CCCCCC3)ccc2nc2n1CCCCC2,inactive,
CCN1CCN(CCCN(Cc2ccco2)C(=S)Nc2ccc(Cl)cc2)CC1,inactive,
Cn1nc(-c2ccc(N3CCOCC3)c(NS(=O)(=O)c3ccc(Cl)cc3)c2)c2ccccc2c1=O,"inconclusive [cytotoxic, single point]",
CN1CCN(c2ccc(NC(=O)COc3ccc(Cl)cc3Cl)cc2)CC1,"inconclusive [cytotoxic, single point]",
O=c1[nH]c(CSc2nc3ccccc3[nH]2)nc2c1cnn2-c1ccccc1,active: 23.1 µM,
Cc1cc(C(=O)N/N=C/c2ccc(C)o2)c2ccccc2n1,active: 3.26 µM,
COC(=O)c1ccc(OCC(=O)Nc2nn(-c3ccccc3)nc2C(N)=O)cc1,,inconclusive: -18.7% [cytotoxic]
CC1(C)N=C(N)N=C(N)N1c1ccc(OCC(=O)N2CCOCC2)cc1,active: 23.1 µM,
OC[C@@H]1[C@@H](c2ccccc2)C(c2ccc(F)cc2)=NN1c1ccccc1,"inconclusive [cytotoxic, single point]",
O=C(c1[nH]c(C(F)(F)F)nc1-c1ccccc1)N1CCN(c2cccc(C(F)(F)F)n2)CC1,active: 1.3 µM,
CS(=O)(=O)N1CCC(C(=O)Nc2cc(Cl)c(Cl)cc2Cl)CC1,inactive,
O=C(Nc1ccc(N2CCOCC2)c(Cl)c1)c1cccnc1Cl,inactive,
COc1cc(C(=O)Nc2ccccc2-c2nnn(CC(N)=O)n2)cc(OC)c1OC,"inconclusive [cytotoxic, single point]",
O=C(c1cccs1)N1C[C@@H](O)[C@H](n2cc(-c3ccc(F)cc3)nn2)C[C@@H]1c1ccccc1,inactive,
COc1cccc(NC(=O)Nc2ccc3c(c2)N(C)C(=O)CS3)c1,"inconclusive [cytotoxic, single point]",
CC(C)c1ccccc1OCCNC(=O)c1cccnc1,inactive,
Cc1nn(Cc2c(F)c(F)c(F)c(F)c2F)c(C)c1NC(=O)c1c(-c2ccccc2)nn(-c2ccccc2)c1C,"inconclusive [cytotoxic, partial curve]",
Fc1cccc(Cc2c(-c3cccc(Br)c3)nc3ccc(Br)cn23)c1,inactive,
Cc1cc(Nc2ccc(C)c(Cl)c2)nc(N2CCOCC2)n1,"inconclusive [cytotoxic, partial curve]",
O=C(Cc1c(F)cccc1Cl)Nc1ccc(S(=O)(=O)NCC2CCCO2)cc1 (centres undefined),inactive,
Cc1ccc(C)c(NC(=O)c2cc(-c3cc(C)c(C)cc3O)n[nH]2)c1,"inconclusive [cytotoxic, single point]",
Cc1ccccc1-c1ocnc1C(=O)Nc1ccccc1NC(=O)c1ccccn1,active: 3.66 µM,
Cc1ccc(C(C)C)c(OCC(O)CN(C)Cc2ccccc2)c1 (centres undefined),"inconclusive [cytotoxic, single point]",

Structure (SMILES),Potency,"activity, negative = less viability"
C/C=C/C=[N+](\[O-])C(C)/C(=N/O)c1ccc(F)cc1 (centres undefined),inactive,
CCCCN(CC)CCNC(=O)c1ccc2c(Cl)c3c(nc2c1)CCC3,active: 20.6 µM,
CCCc1cc(=O)[nH]c(SCc2nc3ccc([N+](=O)[O-])cc3[nH]2)n1,active: 9.2 µM,
Cc1ccsc1C1Nc2ccc3ncccc3c2C2=C1C(=O)CC(C)(C)C2 (centres undefined),active: 10 µM,
COc1ccc(CCNC(=O)c2cccc([N+](=O)[O-])c2)cc1OC,"inconclusive [rising, full curve, poor fit]",
Cc1cscc1-c1cc2nc(NCCCN(C)C)n(C)c(=O)c2s1,,inconclusive: -56.1%
Cc1ccc(NC2=NC3(CCCCC3)N=C(N)N2)c(C)c1,"inconclusive [cytotoxic, single point]",
Cc1ccn2c(Nc3ccc4c(c3)OCO4)c(-c3ccccn3)nc2c1,"inconclusive [cytotoxic, single point]",
Oc1ccc2ccccc2c1/C=N/c1nc2c(s1)CCCC2,"inconclusive [cytotoxic, partial curve]",
COc1ccc2[nH]c(-c3ccc(C)cc3)cc(=O)c2c1,"inconclusive [cytotoxic, partial curve]",
O=C1NN(c2ccc(Br)cc2)C(=O)/C1=C\c1ccc(O)cc1O,"inconclusive [cytotoxic, partial curve, poor fit]",
CCn1c2ccccc2c2cc(NC(=O)COc3ccc(OC)cc3)ccc21,"inconclusive [rising, partial curve]",
Cc1cccc(C)c1-n1nnnc1C1c2ccccc2C(=O)N1CCC(C)C (centres undefined),inactive,
COc1ccc(OC2OC3COC(C)(C)OC3C(O)C2NC(C)=O)cc1 (centres undefined),inactive,
Oc1ccc2oc3c(c2c1C=NCc1ccncc1)CCCC3,"inconclusive [cytotoxic, single point]",
COc1ccc2[nH]c(=O)c(CN(C(=O)c3cccnc3)c3ccc(C)cc3C)cc2c1,inactive,
Fc1ccc2nc3[nH]c4ccccc4c3nc2c1,"inconclusive [cytotoxic, partial curve]",
Cc1ccc(SCC(=O)Nc2cccc(-c3nnc(-c4ccco4)o3)c2)cc1,inactive,
COc1ccc([N+](=O)[O-])cc1NC(=O)Cc1ccc(Cl)cc1,"inconclusive [cytotoxic, single point]",
CC(=O)Nc1ccc(-c2ccnc3c2CC(C)(C(=O)Nc2ccc(F)c(Cl)c2)O3)cc1 (centres undefined),"inconclusive [cytotoxic, single point]",
NC(=O)CC[C@@H]1NC(=O)[C@H](Cc2ccc(O)cc2)NC(=O)c2cc([N+](=O)[O-])cc(F)c2OCC[C@@H](C(N)=O)NC1=O,inactive,
C/C(=N\NC(=O)c1ccc(Cl)c(Cl)c1)c1ccccn1,"inconclusive [cytotoxic, full curve]",
COc1ccccc1NC(=O)Nc1nc(C(C)(C)C)cs1,"inconclusive [cytotoxic, single point]",
CCN(CC)c1ccc(NC(=O)COC(=O)CCC(=O)c2ccc(F)cc2)cc1,,inconclusive: 30.7%
